Out of some 50,000 compounds screened, about 800 (1.6%) showed an effect of 50% or more. This is one part of the list.

In this test the target is Bcl-2-like protein 10 (Homo sapiens) (UniProt Q9HD36). The test can be described thus: Phenotype converters, Bcl-B/TR3 peptide binding displacement, primary biochemical FP (AID 1240).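 Note: 0% = Bcl-B with tracer peptide and DMSO and 100% = tracer peptide lacking Bcl-B.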 To be noted: GST-Bcl-B / FITC-TR3 peptide fluorescence polarization; stronger effect = higher value; compound at 3.75 mg/L. In general terms: Polarisation of emitted light reports the rotation of a fluorescent probe.
Chain of UniProt Q9HD36 (Q9HD36 whole entry, looked up): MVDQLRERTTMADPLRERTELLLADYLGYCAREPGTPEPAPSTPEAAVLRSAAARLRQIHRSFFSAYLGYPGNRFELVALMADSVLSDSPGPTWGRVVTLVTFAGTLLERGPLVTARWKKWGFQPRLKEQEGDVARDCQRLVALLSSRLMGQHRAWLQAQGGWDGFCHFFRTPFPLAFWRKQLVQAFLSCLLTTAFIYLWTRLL
Regarding `COc1ccc(OC)c(NC(=O)c2ccc(Cl)c(Cl)c2)c1`, the displacement came out at 2.1%. Take `COc1ccc(C(=O)OCCNC(=O)c2ccc[n+](C)c2)cc1OC`: the displacement amounted to 10%.

With `Cc1nnc(C)n1/N=C\c1cccc(Br)c1`, the displacement turned out to be 30.3%. As for `Cc1nc2cc(NC(=O)c3ccccc3)ccc2n1C`, the displacement was -8.3%. On to `CCC(=O)c1ccc(OC(=O)c2ccc(Br)cc2)cc1`, for which the displacement was -0.1%. With `COC(=O)C1=C(C)NC(C)=C(C(=O)OC)C1c1cn(-c2ccccc2)nc1-c1ccco1`, the displacement worked out at 8.3%. As for `CCOc1ccc(S(=O)(=O)N=Nc2c(O)[nH]c3ccccc23)c2ccccc12`, the displacement is -5.4%.

For `N/C(Cc1cccc2ccccc12)=N\OC(=O)c1ccc(F)cc1`, the displacement came out at 31.7%. In the case of `Oc1c(/C=N/c2ncn[nH]2)ccc2ccccc12`, the displacement was -4.7%.

With `CC(=O)Oc1cccc(C(=O)Nc2cc(C)on2)c1`, the displacement is -15.4%.

As to `O=C1/C(=C/c2ccccc2Cl)SC(=S)N1c1ccc(O)cc1`, the displacement is 7.4%. With `COc1cccc(/C=N/N2CCN(Cc3ccccc3Cl)CC2)c1` the figure was 11.7%. Regarding `CCn1c2ccccc2c2cc(CN3CCNCC3)ccc21`, the displacement came to 7.5%.

Take `COc1ccc2nc(NC(=O)NC34CC5CC(CC(C5)C3)C4)sc2c1`: the displacement was determined as 12.3%. With `O=C(Nc1cccc(C(F)(F)F)c1)Nc1ccc(Cl)c(Cl)c1` the figure was 0.5%. Take `Cc1nc(-c2ccccc2)sc1C(=O)Nc1ccc2c3c(cccc13)CC2`: the displacement was determined as 7.9%.

As to `CC(NC(=O)c1cc2nc(-c3ccco3)cc(C(F)(F)F)n2n1)C1CC2CCC1C2` (configuration not stated), the displacement worked out at 9.8%. With `O=C(N/N=C/c1cccs1)C(=O)Nc1ccc(Br)cc1` the figure was 10.3%; with `COc1ccccc1NC(=O)CC1S/C(=N\N=C\c2ccccc2)NC1=O` (configuration not stated), 0.9%; with `COc1cc(NC(=O)COc2cc(C)c(Cl)c(C)c2)c(OC)cc1Cl`, 4.8%. With `CCOc1ccc2ccc(OCC)c(/C=c3\sc4nc5ccccc5n4c3=O)c2c1`, the displacement is -3.2%.

As to `O=C1NC(=S)N(c2cccc(Br)c2)C(=O)/C1=C/c1ccc(-c2cccc([N+](=O)[O-])c2)o1`, the displacement came to 10.8%. With `CCOC(=O)c1c(NC(=O)c2cc(Cl)ccc2[N+](=O)[O-])sc2c1CCCC2` the figure was -13.5%; with `COc1ccccc1Nc1ncnc2ccc(Br)cc12`, -4.4%. With `Cc1ccc(OCC(=O)NNC(=O)c2ccccc2C)c(C)c1` the figure was 3.8%; with `CCOC(=O)C1CCN(C(=O)c2ccc(I)cc2)CC1`, 13.3%; with `CCOC(=O)C(=CNCC(=O)O)C(=O)OCC`, -10.7%. With `COCCCN1C(=O)C(=Cc2c(NCC3CCCO3)nc3ccccn3c2=O)SC1=S` (configuration not stated) the figure was -0.2%; with `O=C(O)c1cccc(N(CCO)CCO)c1`, 6%; with `O=S1(=O)N=C(N/N=C/c2ccccc2O)c2ccccc21`, -2.1%. Consider `CCC1CCc2c(sc3nc(SCC(=O)NCc4ccccc4)n(-c4ccccc4)c(=O)c23)C1` (configuration not stated), for which the displacement was -65.4%.

Consider `O=C1C(=O)N(c2cccc([N+](=O)[O-])c2)C(c2ccccc2Cl)/C1=C(/O)c1ccccc1` (configuration not stated), for which the displacement came to 2.1%. As to `Cc1ccc(N2C(=O)NC(=O)/C(=C\c3ccc(OCC(=O)O)c(Br)c3)C2=O)cc1`, the displacement was -12.7%. Then `COc1ccc(C(=O)Nc2ccc3oc(-c4ccc(N(C)C)cc4)nc3c2)cc1`, with 3.1%. With `O=C(CCC1CCCCC1)Nc1ccc([N+](=O)[O-])cn1` the figure was -4%; with `CCc1ccc(N2CC(C(=O)Nc3ccc(Br)cc3)CC2=O)cc1` (configuration not stated), 13.1%. Turning to `COc1ccc(S(=O)(=O)Nc2ccccc2Br)cc1`, the displacement is -7.9%. On to `O=C1C=C(NCc2ccc(Cl)c(Cl)c2)C2(CCCCC2)O1`, for which the displacement came to 6.6%.

With `Cc1cnc(NC(=O)c2ccc([N+](=O)[O-])cc2)s1`, the displacement is -15%.

For the compound `COc1ccc(C(=O)N2CCN(C3CCCCC3)CC2)cc1OC`, the displacement was -0.7%. For `Cc1c(NC(=O)c2cccs2)cccc1-c1nc2ncccc2o1`, the displacement came out at 3.8%. With `Cc1nc2ccccc2n1-c1ccccc1`, the displacement was found to be 8.4%. Then `CCOC(=O)c1ccc(NS(=O)(=O)c2cccs2)cc1`, with 3.9%. With `Cn1c(/C(C#N)=C/c2cccc([N+](=O)[O-])c2O)nc2ccccc21` the figure was 7.5%; with `C=CCOc1ccc(C=C2C(=O)N(C)C(=O)N(C)C2=O)cc1OC`, 14.7%. For `COc1ccc(Cl)cc1N(CC(=O)NCCSc1ccccn1)S(=O)(=O)c1ccccc1`, the displacement amounted to 17.7%. `CCOc1ccc(N2C(=O)S/C(=C\c3ccc(C)cc3)C2=O)cc1`: the displacement is -5.8%. With `COc1cc(Br)c(/C=C2\C(=O)NC(=S)N(c3ccccc3)C2=O)cc1OC` the figure was 3.7%; with `CN(C)c1ccc(-c2nc3cc(NC(=O)c4ccccc4Br)ccc3o2)cc1`, 1.6%.

Consider `Cc1cccc(OC(=O)NCCOC(=O)N(O)c2ccc(Cl)cc2)c1`, for which the displacement was found to be 6.7%.

For the compound `O=S(=O)(Nc1ccc(N2CCCCC2)cc1)c1ccc(Cl)cc1`, the displacement was -22%. With `O=C(NCCCO)C(=O)Nc1nc(C23CC4CC(CC(C4)C2)C3)cs1` the figure was -50.2%.

As for `COc1ccc(NC(=S)NC(=O)C23CC4CC(CC(C4)C2)C3)cc1`, the displacement is -9.8%. Then `C/C(=N\N1CCN(Cc2ccccc2Cl)CC1)c1ccccc1O`, with 13.5%; and `CCN(CC)c1ccc(N=Cc2c(O)[nH]c(=S)[nH]c2=O)cc1`, with 12.9%. For `O=C1CSC(c2ccccc2)N1/N=C/c1ccccc1` (configuration not stated), the displacement worked out at 2%. Consider `O=c1[nH]c(-c2ccc(O)c(Br)c2)nc2sc3c(c12)CCCC3`, for which the displacement is -26.2%. With `O=c1[nH]c(-c2cccc(O)c2)nc2sc3c(c12)CCCC3` the figure was -12.3%. As for `O=c1cc(O)c2ccccc2n1Cc1ccccc1`, the displacement was -4.8%.

Turning to `Cc1ccc(/C=N/NC(=O)c2ccco2)o1`, the displacement was 18.4%. Then `Fc1ccc(-c2nnn(Cc3c(F)cccc3Cl)n2)cc1`, with -6.4%; and `O=C(O)c1cc(S(=O)(=O)N2CCCCCC2)c(Cl)cc1Cl`, with 5.7%; and `Cn1c(=O)c(N)c2c3c(cccc31)C(=O)c1ccccc1-2`, with 154%. Then `Cc1nnc(SCC(=O)n2c3c(c4ccccc42)CCCC3)s1`, with -10.9%. On to `COc1ccc(/C=N/Nc2nc3ccccc3[nH]2)c2c(OC)cccc12`, for which the displacement was -24.8%. Then `Cc1n[nH]c(C)c1Sc1ccccc1N=Cc1ccccc1`, with 7.2%; and `Clc1ccc(-c2noc(-c3ccc(Br)cc3)n2)cc1`, with 3.3%.

As for `CCCCN(CCCC)C(=O)c1ccccc1`, the displacement worked out at 12.1%.

As to `NC(=O)c1nn2c(c1Cl)NC(c1cccs1)CC2C(F)(F)F` (configuration not stated), the displacement is 7.7%. With `COC(=O)C1=C(C)N(C)C(=O)/C1=C\c1cccs1` the figure was -9.1%; with `Cc1ccc(-n2c(-c3ccccc3F)nc3c(cnn3-c3ccccc3)c2=O)cc1`, 0.3%; with `Cc1cc2oc(=O)cc(C)c2cc1NC(=O)/C=C/C(=O)O`, 34.7%.
